According to PubChem BioAssay AID743279 (National Center for Advancing Translational Sciences (NCATS), 2014):
About 17,000 (4.7%) of roughly 360,000 compounds were called active. Inconclusive means that the source gave no clear call. Such entries were picked first, then a sample of the others. Rule as the data show it: active = activity change below about -50%; inconclusive = mostly about -30% to -49%; inactive = weaker than that.

test: qHTS for Inhibitors of Inflammasome Signaling: IL-1-beta AlphaLISA Primary Screen; settings: THP-1 LPS/ATP IL-1B secretion, 16 h; at 57.5 µM, stronger effect = lower value
Method in brief: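 THP-1 cells pretreated 1 hr with compounds (up to 57.5 uM final), then stimulated with LPS (250 ng/mL final) plus ATP (1.25 mM final); secreted IL-1B measured by AlphaLISA after 16 hr, decreased signal indicating inhibition.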
% is scaled to controls: 0 for no effect and ±100 for the full control effect.

Activity change, inconclusive:
CCN(CC)CC(=O)Nc1sc2c(c1C(=O)c1ccccc1C)CCC2 -48.2%
O=C(c1ccc(F)cc1)C(CCCCCC(CN1CCOCC1)C(=O)c1ccc(F)cc1)CN1CCOCC1 (configuration not stated) -35.5%
CCOC(=O)c1sc(NC(=O)CN2C(=O)NC3(CC(C)CC(C)(C)C3)C2=O)c(C(=O)OCC)c1C (configuration not stated) -30%
CN(C)c1ccc(/C=N/N2CCN(c3ccccn3)CC2)cc1 -42.5%
CCC(=O)N1N=C(c2ccc(NS(=O)(=O)c3ccc(C)cc3)cc2)CC1c1ccco1 (configuration not stated) -31.7%
O=C(Nc1cccc(C(=O)N2CCN(c3cccc(Cl)c3)CC2)c1)c1ccccc1 -38.9%
N#CC(c1ccc([N+](=O)[O-])cc1)C(CC(=O)c1ccccc1)c1ccccc1 (configuration not stated) -37.6%
CCOC(=O)c1sc2nc(C)nc(NCc3ccc(F)cc3)c2c1C -37.9%
CCOC(=O)N1CCN(C(=O)C2CCCN(Cc3nc(-c4ccc(Cl)cc4)oc3C)C2)CC1 (configuration not stated) -31.7%
Nc1ccc(Nc2nc3ccccc3[nH]2)cc1 -34.1%
O=C(/C=C/c1ccc(S(=O)(=O)NCc2ccco2)cc1)NCc1ccccc1Cl -41.3%
N=C1C(c2nc(-c3cccc([N+](=O)[O-])c3)cs2)=C(O)CN1NC(=O)c1ccco1 -35.4%
COc1cc2cc(C(=O)Nc3ccccc3)c(N)nc2cc1OC -30.8%
CCOC(=O)c1ccc(OCC2NCCc3cc(OC)c(OC)cc32)cc1 (configuration not stated) -30.8%
CCCCOC(=O)CSC1=C(C#N)C(c2ccccc2OC)C(C#N)C(=O)N1 (configuration not stated) -30.4%
Cc1cccc(C(=O)Nc2sc3c(c2C#N)CCCCC3)c1 -40.8%
Cc1cccc(OCc2nnc(SCC(=O)N3c4ccccc4CCc4ccccc43)o2)c1 -35.8%
Cn1c(=NC(=O)C(C)(C)C)sc2cccc(F)c21 -41.1%
CC(C)(C)OC(=O)NCc1ccc(CNC(=O)c2[nH]cnc2C(=O)N[C@@H](Cc2ccccc2)C(=O)OC(C)(C)C)cc1 -37.8%
C[C@H](CO)N1C[C@H](C)[C@@H](CN(C)Cc2ccc(-c3ccccc3)cc2)Oc2c(NS(=O)(=O)c3cccs3)cccc2C1=O -30.9%
COc1ccc2c(c1)[C@H]1[C@H](CO2)[C@H](c2ccccc2)[C@]2(C)C(=O)Nc3cc(F)ccc3C(=O)N12 -43.3%
C#CCN(C[C@@H]1[C@@H](OC(=O)NCc2ccc(OC)c(OC)c2)[C@@H](OC(=O)NCc2ccc(OC)c(OC)c2)CN(C(=O)OC(C)C)N1C(=O)OC(C)C)S(=O)(=O)c1ccc(C)cc1 -37.5%
Cc1nc(C(=O)Nc2cc(F)cc(Cl)c2)sc1C1(C)CC(c2ccccc2)=NO1 (configuration not stated) -30%
Cn1c(NCc2ccccc2Cl)nc2ccccc21 -41.7%
O=[N+]([O-])c1cc(C(F)(F)F)ccc1Cl -46.9%
CCCc1c(C(=O)N/N=C/c2ccc(C)o2)nnn1-c1nonc1N -49.7%
Cc1ccc(S(=O)(=O)N2CCC(C(=O)N3Cc4ccccc4C3)CC2)cc1 -48.2%
COc1cccc(-c2c(C(=O)N/N=C/c3ccco3)nnn2-c2nonc2N)c1 -37%
COc1cccc(C(=O)Nc2ccccc2OC(F)(F)F)c1 -30.8%
COCCN(Cc1cc2cc3c(cc2nc1Cl)OCO3)C(=O)c1cccc(C)c1 -30.8%
CNC(=O)/C(C#N)=C/c1c(N(Cc2ccccc2)Cc2ccccc2)nc2c(C)cccn2c1=O -46%
O=S(=O)(c1ccc(Br)s1)N1CCN(CCOc2ccccc2)CC1 -48.2%
O=c1cc(-c2ccccc2)nc2nc(-c3ccccc3)[nH]n12 -40.7%
COc1cc(NC(=S)N2CCN(C(c3ccccc3)c3ccccc3)CC2)cc(OC)c1 -40.8%
O=C(CS(=O)(=O)c1ccc(Br)cc1)N1CCOCC1 -30.3%
CC(C)=CC(=O)Nc1nnc(-c2ccccc2C)s1 -36.4%
CCOc1ccc(S(=O)(=O)N2CCN(C(=O)c3oc4ccc(OC)cc4c3C)CC2)cc1 -33%
N#CC(C#N)=Cc1cccn1-c1ccc(S(N)(=O)=O)cc1 -35.1%
Cc1ncc([N+](=O)[O-])n1CCOC(=O)Nc1ccc(Cl)c(Cl)c1 -30.3%
CN1CCc2c(sc3c2C(=O)NC(c2cn(Cc4ccccc4)c4ccccc24)N3)C1 (configuration not stated) -39.6%
CCN(CC)c1ccc2c(C)c(-c3ccc(N)cc3)c(=O)oc2c1 -33.7%
CCOc1ccc2cc(/C=C/C(=O)c3ccco3)c(Cl)nc2c1 -39%
COc1ccc(/C=C/C(=O)C(C)(C)C)cc1OC -33.9%
O=C(CCCn1nnnc1CN1CCOCC1)N1CCC(c2ccc(F)cc2)C1 (configuration not stated) -43.2%
N/C(=N\NC(=O)c1cccs1)c1cc2cc(Cl)ccc2oc1=O -30.8%
O=C(c1ccc(S(=O)(=O)N2CCCCCC2)cc1)N1CCC(CN2C(=O)c3cccc4cccc(c34)C2=O)CC1 -39.9%
CN(C)c1ccnc(-n2cccc2/C=N/OCc2ccc(F)cc2Cl)c1C#N -34%
COc1ccc(NC(=O)c2cc(-c3ccc(C)o3)nc3ccccc23)cc1OC -49.3%
CC(=O)Nc1cccc(-c2ccnc3c2CC(C(=O)Nc2ccc(Cl)cc2)O3)c1 (configuration not stated) -33.9%

Activity change, active:
CC1(CCc2ccc3c(c2)OCO3)NCCc2c1[nH]c1ccccc21 (configuration not stated) -57.5%
CC1(C(=O)NS(=O)(=O)C2CC2)CCCN(C(=O)c2cccc(OC(F)(F)F)c2)C1 (configuration not stated) -63.8%
CCc1ccc2[nH]c(=O)c(CN(Cc3ccc4c(c3)OCO4)Cc3nnnn3C3CCCC3)cc2c1 -66%
CCOC(=O)C1CCN(C2=NC(=O)/C(=C/c3ccc(Cl)cc3)S2)CC1 -50.4%
NS(=O)(=O)c1ccc(Sc2nc3ccccc3s2)c([N+](=O)[O-])c1 -99.2%
COc1ccccc1N(CC(=O)NCc1ccco1)S(=O)(=O)c1ccc(C)cc1 -84.6%
C=CC(=O)N1C/C(=C/c2ccccc2)C(=O)/C(=C\c2ccccc2)C1 -103%
Nc1c(C(=O)NCc2ccco2)c2nc3ccccc3nc2n1CCc1ccc(F)cc1 -116%
COC(=O)[C@@]1(Cc2ccc(F)cc2)[C@H]2c3cc(C(=O)N(C)C)n(Cc4ccc(C)c(F)c4F)c3C[C@H]2CN1C(=O)c1ccccc1 -75.3%
O=S(=O)(/C=C/C=C/S(=O)(=O)c1ccccc1)c1ccccc1 -101%
COc1ccc(CC(=O)Nc2nc3ccc(F)cc3s2)cc1S(=O)(=O)N1CCOCC1 -59.1%
CCCC(=O)Nc1sc(C)c(C)c1C(=O)Nc1cccc(C)c1 -59.5%
Cn1ncc2c(O/N=C(\N)c3ccc(C(F)(F)F)cc3)ncnc21 -70.5%
O=C(c1cc(-c2ccncc2)nc2ccc(Cl)cc12)N1CCN(Cc2ccc3c(c2)OCO3)CC1 -83%
CCCCCCCCNC(=S)NCCN1CCCCC1 -62%
CCN(CC)P(=O)(Nc1ccc(SC(F)F)cc1)c1ccc(N(C)C)cc1NC(=O)c1ccco1 (configuration not stated) -50.2%
Cc1ccc(C(c2nnnn2Cc2cccs2)N2CCN(Cc3ccc4c(c3)OCO4)CC2)cc1 (configuration not stated) -63.8%

Activity change, inactive:
CC(C)(C)C(=O)NC(=S)Nc1ccccc1C(N)=O 14.3%
S=c1[nH]nc(-c2ccccc2)n1/N=C/c1cccc(Br)c1 3.76%
CCOC(=O)c1ccc(NC(=O)C(C)N2C(=O)c3ccccc3C2=O)cc1 (configuration not stated) 26.6%
Cc1noc(C)c1CN(C(=S)NC1CC1)c1ccccc1 9.99%
Cc1nc(N2CCN(c3ccccc3)CC2)[nH]c(=O)c1C 1.21%
CCOC(=O)C1CCN(C(=O)CSc2nnc(-c3ccco3)n2-c2ccccc2)CC1 -7.49%
O=c1sc2ccccc2c(N2CCOCC2)c1[N+](=O)[O-] 17.7%
CCc1nc2ccc(C(=O)NCCOc3ccc(OC)cc3)cn2c1N(C)C(=O)Cc1ccccc1 0.562%
COc1ccc(C2(O)C(=O)Nc3ccc(C)cc32)cc1 (configuration not stated) 25.1%
Cn1c(SCC(=O)N2CCN(c3ccccc3)CC2)nnc1-c1ccccc1 12.2%
CC(=O)Nc1ccc(NC(=O)COC(=O)[C@@H]2CCCN2C(=O)c2cccs2)cc1 6.68%
CCOc1ccccc1NC(=O)CSc1nnc(CNC(=O)COc2ccc(Cl)cc2)o1 -22.1%
CC[C@]12c3[nH]c4cc(CCC(=O)N(C)C)ccc4c3CCN1C(=O)[C@@H](CC(=O)NC/C=C(\C)CCC=C(C)C)C[C@@H]2C(=O)N1CCN(C(=O)c2ccco2)CC1 0%
O=C(COc1ccccc1)Nc1nnc(-c2ccccc2)o1 9.94%
CN(Cc1ccccc1)C(=O)COC(=O)Cc1ccc(Cl)cc1 -3.15%
COc1ccccc1C1Nc2ccccc2NC2=C1C(=O)CC(C)(C)C2 (configuration not stated) -12.1%
